Some of the results follow. Repeats are few or missing, and single values can be far off.
Test system: COLO792
Assay: cell count relative to DMSO control; melanoma cells; higher = more viable cells
Conditions: library dose: low library concentration; 72 h
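Also: cell number obtained by counting DAPI-stained nuclei in high-throughput microscope images with image analysis software, screen run in 1,536-well plates.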

| SMILES | cell count |
| --- | --- |
| Cc1cc(Nc2cc(N3CCN(C)CC3)nc(Sc3ccc(NC(=O)C4CC4)cc3)n2)n[nH]1 [Tozasertib] + O=c1cc(-c2cccc3c2Sc2ccccc2S3)oc(N2CCOCC2)c1 [KU55933] (first compound 0.006 µM, partner dose 1 µM) | 83.7% |
| N#CC[C@H](C1CCCC1)n1cc(-c2ncnc3[nH]ccc23)cn1 [ruxolitinib] + COCC[n+]1c2c(n(Cc3cnccn3)c1C)C(=O)c1ccccc1C2=O [YM155] (first compound 1 µM, partner dose 0.0004 µM) | 98.9% |
| CC[C@]1(O)C[C@H]2CN(CCc3c([nH]c4ccccc34)[C@@](C(=O)OC)(c3cc4c(cc3OC)N(C=O)[C@H]3[C@@](O)(C(=O)OC)[C@H](OC(C)=O)[C@]5(CC)C=CCN6CC[C@]43[C@@H]65)C2)C1 [vincristine] + NC(=O)c1ccc(N(C(N)=O)c2c(F)cccc2F)nc1-c1ccc(F)cc1F [VX702] (first compound 0.0001 µM, partner dose 0.4 µM) | 96.1% |
| CC[C@]1(O)C[C@H]2CN(CCc3c([nH]c4ccccc34)[C@@](C(=O)OC)(c3cc4c(cc3OC)N(C=O)[C@H]3[C@@](O)(C(=O)OC)[C@H](OC(C)=O)[C@]5(CC)C=CCN6CC[C@]43[C@@H]65)C2)C1 [vincristine] + CC(=O)c1c(C)c2cnc(Nc3ccc(N4CCNCC4)cn3)nc2n(C2CCCC2)c1=O [palbociclib] (first compound 0.0001 µM, partner dose 0.04 µM) | 67.9% |
| N#CC[C@H](C1CCCC1)n1cc(-c2ncnc3[nH]ccc23)cn1 [ruxolitinib] + CCCS(=O)(=O)Nc1ccc(F)c(C(=O)c2c[nH]c3ncc(Cl)cc23)c1F [PLX4720] (first compound 1 µM, partner dose 0.08 µM) | 82.4% |
| Cc1cc(Nc2cc(N3CCN(C)CC3)nc(Sc3ccc(NC(=O)C4CC4)cc3)n2)n[nH]1 [Tozasertib] + N#CC[C@H](C1CCCC1)n1cc(-c2ncnc3[nH]ccc23)cn1 [ruxolitinib] (first compound 0.006 µM, partner dose 1 µM) | 89.8% |
| Cc1cc(Nc2cc(N3CCN(C)CC3)nc(Sc3ccc(NC(=O)C4CC4)cc3)n2)n[nH]1 [Tozasertib] + NC(=O)c1ccc(N(C(N)=O)c2c(F)cccc2F)nc1-c1ccc(F)cc1F [VX702] (first compound 0.006 µM, partner dose 0.4 µM) | 108% |
| CC[C@]1(O)C[C@H]2CN(CCc3c([nH]c4ccccc34)[C@@](C(=O)OC)(c3cc4c(cc3OC)N(C=O)[C@H]3[C@@](O)(C(=O)OC)[C@H](OC(C)=O)[C@]5(CC)C=CCN6CC[C@]43[C@@H]65)C2)C1 [vincristine] + C=C(c1ccc(C(=O)O)cc1)c1cc2c(cc1C)C(C)(C)CCC2(C)C [Bexarotene] (first compound 0.0001 µM, partner dose 2 µM) | 93.8% |
| N#CC[C@H](C1CCCC1)n1cc(-c2ncnc3[nH]ccc23)cn1 [ruxolitinib] + Clc1ccc(Nc2nnc(Cc3ccncc3)c3ccccc23)cc1 [vatalanib] (first compound 1 µM, partner dose 2 µM) | 78.3% |
| N#CC[C@H](C1CCCC1)n1cc(-c2ncnc3[nH]ccc23)cn1 [ruxolitinib] + O=C(/C=C/c1cccnc1)NCCCCC1CCN(C(=O)c2ccccc2)CC1 [FK866] (first compound 1 µM, partner dose 0.01 µM) | 54.7% |
| Cc1cc(Nc2cc(N3CCN(C)CC3)nc(Sc3ccc(NC(=O)C4CC4)cc3)n2)n[nH]1 [Tozasertib] + CN(NC(=O)CC(=O)NN(C)C(=S)c1ccccc1)C(=S)c1ccccc1 [STA4783] (first compound 0.006 µM, partner dose 0.006 µM) | 57.9% |
| N#CC[C@H](C1CCCC1)n1cc(-c2ncnc3[nH]ccc23)cn1 [ruxolitinib] + CO[C@H]1C[C@@H]2CC[C@@H](C)[C@@](O)(O2)C(=O)C(=O)N2CCCC[C@H]2C(=O)O[C@H]([C@H](C)C[C@@H]2CC[C@@H](OCCO)[C@H](OC)C2)CC(=O)[C@H](C)/C=C(\C)[C@@H](O)[C@@H](OC)C(=O)[C@H](C)C[C@H](C)/C=C/C=C/C=C/1C [everolimus] (first compound 1 µM, partner dose 0.02 µM) | 62.7% |
| Cc1cc(Nc2cc(N3CCN(C)CC3)nc(Sc3ccc(NC(=O)C4CC4)cc3)n2)n[nH]1 [Tozasertib] + Cc1cc(Nc2cc(N3CCN(C)CC3)nc(/C=C/c3ccccc3)n2)n[nH]1 [ENMD2076] (first compound 0.006 µM, partner dose 0.04 µM) | 88.2% |
| Cc1cc(Nc2cc(N3CCN(C)CC3)nc(Sc3ccc(NC(=O)C4CC4)cc3)n2)n[nH]1 [Tozasertib] + CC1(C)NC(=O)N(c2ccc([N+](=O)[O-])c(C(F)(F)F)c2)C1=O [nilutamide] (first compound 0.006 µM, partner dose 1 µM) | 92% |
| CC[C@]1(O)C[C@H]2CN(CCc3c([nH]c4ccccc34)[C@@](C(=O)OC)(c3cc4c(cc3OC)N(C=O)[C@H]3[C@@](O)(C(=O)OC)[C@H](OC(C)=O)[C@]5(CC)C=CCN6CC[C@]43[C@@H]65)C2)C1 [vincristine] + COc1ccc(Cl)c(Nc2nc3ccccc3nc2NS(=O)(=O)c2cccc(NC(=O)C(C)(C)N)c2)c1 [XL147] (first compound 0.0001 µM, partner dose 0.8 µM) | 93.4% |
| N#CC[C@H](C1CCCC1)n1cc(-c2ncnc3[nH]ccc23)cn1 [ruxolitinib] + CCN(CC)CCNC(=O)c1c(C)[nH]c(/C=C2\C(=O)Nc3ccc(F)cc32)c1C [sunitinib] (first compound 1 µM, partner dose 0.4 µM) | 112% |
| Cc1cc(Nc2cc(N3CCN(C)CC3)nc(Sc3ccc(NC(=O)C4CC4)cc3)n2)n[nH]1 [Tozasertib] + COc1cc([C@@H]2c3cc4c(cc3[C@@H](O[C@@H]3O[C@@H]5CO[C@@H](C)O[C@H]5[C@H](O)[C@H]3O)[C@H]3COC(=O)[C@H]23)OCO4)cc(OC)c1O [etoposide] (first compound 0.006 µM, partner dose 0.02 µM) | 87.3% |
| CC[C@]1(O)C[C@H]2CN(CCc3c([nH]c4ccccc34)[C@@](C(=O)OC)(c3cc4c(cc3OC)N(C=O)[C@H]3[C@@](O)(C(=O)OC)[C@H](OC(C)=O)[C@]5(CC)C=CCN6CC[C@]43[C@@H]65)C2)C1 [vincristine] + Oc1nc(-c2ccc(C(F)(F)F)cc2)nc2c1CSCC2 [XAV939] (first compound 0.0001 µM, partner dose 2 µM) | 94.5% |
| CC[C@]1(O)C[C@H]2CN(CCc3c([nH]c4ccccc34)[C@@](C(=O)OC)(c3cc4c(cc3OC)N(C=O)[C@H]3[C@@](O)(C(=O)OC)[C@H](OC(C)=O)[C@]5(CC)C=CCN6CC[C@]43[C@@H]65)C2)C1 [vincristine] + CC(=O)O[C@@]12CO[C@@H]1C[C@H](O)[C@@]1(C)C(=O)[C@H](O)C3=C(C)[C@@H](OC(=O)[C@H](O)[C@@H](NC(=O)OC(C)(C)C)c4ccccc4)C[C@@](O)([C@@H](OC(=O)c4ccccc4)[C@H]21)C3(C)C [Docetaxel] (first compound 0.0001 µM, partner dose 0.0001 µM) | 32.4% |
| N#CC[C@H](C1CCCC1)n1cc(-c2ncnc3[nH]ccc23)cn1 [ruxolitinib] + Cn1nnc2c(C(N)=O)ncn2c1=O [temozolomide] (first compound 1 µM, partner dose 2 µM) | 102% |
| Cc1cc(Nc2cc(N3CCN(C)CC3)nc(Sc3ccc(NC(=O)C4CC4)cc3)n2)n[nH]1 [Tozasertib] + Nc1nc(F)nc2c1ncn2[C@@H]1O[C@H](CO)[C@@H](O)[C@@H]1O [fludarabine] (first compound 0.006 µM, partner dose 0.2 µM) | 74.2% |
| N#CC[C@H](C1CCCC1)n1cc(-c2ncnc3[nH]ccc23)cn1 [ruxolitinib] + NC(=O)c1ccc(N(C(N)=O)c2c(F)cccc2F)nc1-c1ccc(F)cc1F [VX702] (first compound 1 µM, partner dose 0.4 µM) | 95.5% |

Source: the supplement of paper PMC4604168 (melanoma cell lines)
